{"source": "PubChem BioAssay AID1457", "about": "(National Center for Advancing Translational Sciences (NCATS), 2008)", "note": "The campaign covered roughly 210,000 compounds. About 730 (0.35%) were called active. Inconclusive results, whose numbers are uncertain, are shown with a selection of clear calls. The call rests on the fitted dose curve; in most records, active means well fitted inhibition curve with a large enough effect; inconclusive means small, poorly fitted or top-dose-only effect; inactive means no such curve, though single readings can be large or run the other way. A potency beside an inconclusive call is a rough fit, not a confirmed value. Potency means the concentration at half of the fitted maximal effect.", "data": [{"experiment": "qHTS Assay for Identifying the Cell-Membrane Permeable IMPase Inhibitors: Potentiation with Lithium; further: nearly all actives have a fitted effect of over 50% in size;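 on activity, negative = IMPase inhibition: plate controls were basal vehicle for no effect and high inhibitor control for full effect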", "details": "CHO-M1 cells, IP1 TR-FRET (IP-One), carbachol + lithium; series mostly up to 59.4 µM; activity, negative = IMPase inhibition: at the top concentration", "method_in_brief": "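Steps: plate 2000 CHO-M1 cells per well and culture 16–30 h; add compound and lithium; incubate 30 min, 37C; add d2-IP1 tracer and Eu cryptate anti-IP1 antibody in lysis buffer; read after 10 min at room temperature.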", "values": [{"smiles": "NNC(=O)c1cc2c(s1)CCCCCC2", "activity, negative = IMPase inhibition": "inactive: -2.07% [at 38.3 µM]"}, {"smiles": "CN1CCN(C(=O)c2c(NC(=O)c3ccco3)sc3c2CCC(C(C)(C)C)C3)CC1", "note": "(stereo not drawn)", "Potency": "inconclusive: 11.2 µM [inhibitor, partial curve]"}, {"smiles": "Cc1cccc2c(C(=O)Nc3ccc(Br)cc3)cc(-c3ccccn3)nc12", "Potency": "inconclusive: 22.4 µM [inhibitor, single point]"}, {"smiles": "O=C(Nc1cccc(-c2nc3cccnc3s2)c1)C1c2ccccc2Oc2ccccc21", "Potency": "inconclusive: 7.94 µM [inhibitor, partial curve]"}, {"smiles": "Cc1[nH]c(=O)c(C#N)c(C)c1Cc1ccc(Cl)cc1Cl", "Potency": "inconclusive: 12.6 µM [inhibitor, single point]"}, {"smiles": "COCCN(Cc1cc2cc(C)ccc2n2nnnc12)C(=S)Nc1ccccc1C", "Potency": "inconclusive: 28.2 µM [inhibitor, single point]"}, {"smiles": "CS(=O)(=O)N1N=C(c2ccc3nccnc3c2)CC1c1ccccc1", "note": "(stereo not drawn)", "Potency": "inconclusive: 28.2 µM [inhibitor, single point]"}, {"smiles": "O=C(CCn1[nH]c(=O)c2ccccc2c1=O)N1CCOCC1", "Potency": "inconclusive: 5.62 µM [inhibitor, single point]"}, {"smiles": "CCNc1ncc2nc(-c3cccs3)c(=O)n(Cc3cccc(OC)c3)c2n1", "Potency": "active: 2 µM"}, {"smiles": "COC(C(=O)NNC(=O)CCc1ccccc1)c1ccccc1", "note": "(stereo not drawn)", "Potency": "inconclusive: 3.98 µM [inhibitor, single point]"}, {"smiles": "C=CCN1C(=O)/C(=C2/Sc3ccc(OC)cc3N2C)SC1=Nc1cccc(O)c1", "Potency": "inconclusive: 28.2 µM [inhibitor, single point]"}, {"smiles": "S=c1nc[nH]c2c1sc1nc(-c3ccccc3)c3c(c12)CCCC3", "Potency": "inconclusive: 10 µM [inhibitor, partial curve]"}, {"smiles": "CCN(CC)S(=O)(=O)c1ccc(N2CCCCC2)c(NC(=O)/C=C/c2ccc(OC)c(OC)c2)c1", "activity, negative = IMPase inhibition": "inactive: 3.08%"}, {"smiles": "Cc1nn(C)c(C)c1CN(C)C(=O)c1cnn2c1NC(c1ccccc1)CC2C(F)(F)F", "note": "(stereo not drawn)", "Potency": "inconclusive: 28.2 µM [inhibitor, single point]"}, {"smiles": "CCCn1c2ccccc2c2nnc(SCC(=O)Nc3nnc(CC(=O)OCC)s3)nc21", "Potency": "inconclusive: 1.78 µM [inhibitor, partial curve]"}, {"smiles": "CC(=O)Nc1sc(/C(C#N)=C\\c2cccc(Cl)c2)nc1-c1ccc(C)cc1", "Potency": "inconclusive: 15.8 µM [inhibitor, single point]"}, {"smiles": "Cc1ccc(-c2cc(C(=O)NCc3cnn(C)c3C)c3cc(Br)ccc3n2)cc1", "Potency": "inconclusive: 31.6 µM [inhibitor, single point]"}, {"smiles": "COc1ccc(Oc2ncc3nc(-c4ccc(F)cc4)c(=O)n(C)c3n2)cc1", "Potency": "inconclusive: 14.1 µM [inhibitor, single point]"}, {"smiles": "C/C(=C/C(=O)Nc1cccc(F)c1)N1CCCC1", "Potency": "inconclusive: 3.16 µM [inhibitor, single point]"}, {"smiles": "Cc1cc(C(F)(F)F)c(C#N)c(Sc2ccccc2)n1", "Potency": "inconclusive: 28.2 µM [inhibitor, single point]"}, {"smiles": "CCOC(=O)c1cccc(NC(=O)CSc2nnc(COc3ccccc3C)o2)c1", "Potency": "inconclusive: 28.2 µM [inhibitor, single point]"}, {"smiles": "COc1ccc(NC2=Nc3ccccc3N3C2=Nc2c(c(C)nn2-c2ccc(C)cc2)C3c2cccnc2)cc1", "note": "(stereo not drawn)", "Potency": "inconclusive: 3.55 µM [inhibitor, single point]"}, {"smiles": "Cc1cc(CNC(=O)Cn2cc([N+](=O)[O-])cn2)c2ccccc2n1", "Potency": "inconclusive: 3.16 µM [inhibitor, full curve, poor fit]"}, {"smiles": "O=c1oc2cc(OCc3ccc(F)cc3F)ccc2cc1-c1ccccn1", "Potency": "inconclusive: 12.6 µM [inhibitor, single point]"}, {"smiles": "Cc1cc(C)nc(SCC(=O)OCN2C(=O)c3ccccc3C2=O)n1", "activity, negative = IMPase inhibition": "inactive: -5.45% [at 38.3 µM]"}, {"smiles": "CN(C)c1ncc2nc(-c3ccc(Cl)cc3)c(=O)n(C3CC3)c2n1", "Potency": "inconclusive: 31.6 µM [inhibitor, partial curve]"}, {"smiles": "Cc1cc(NC(=O)c2ccc(S(=O)(=O)N3CCCC3)cc2)nc2c1c(=O)oc1ccccc12", "Potency": "inconclusive: 28.2 µM [inhibitor, single point]"}, {"smiles": "COc1cc(-c2nc3ccc(N4CCN(C)CC4)cc3[nH]2)cc(OC)c1OC", "Potency": "inconclusive: 12.6 µM [inhibitor, partial curve]"}, {"smiles": "Cc1ccc(OCc2n[nH]c(=S)n2Cc2ccccc2)cc1", "activity, negative = IMPase inhibition": "inactive: 17.1%"}, {"smiles": "CCn1c(=O)cc(OCC(=O)N2CCN(C(=O)c3ccco3)CC2)c2ccccc21", "activity, negative = IMPase inhibition": "inactive: 27.5% [at 38.3 µM]"}, {"smiles": "COc1ccc(-c2c3c(nc4sc5c(=O)[nH]c(C)nc5c24)CCC3)cc1", "Potency": "inconclusive: 28.2 µM [inhibitor, single point]"}, {"smiles": "CCOC(=O)c1c(C)[nH]c(C(=O)CSc2nccc(C)n2)c1C", "Potency": "inconclusive: 12.6 µM [inhibitor, single point]"}, {"smiles": "COc1ccc(C(=O)Nc2nc(C)c3cc4c(cc3n2)OCO4)cc1", "Potency": "inconclusive: 22.4 µM [inhibitor, single point]"}, {"smiles": "Cc1nc2ccccc2c(=O)n1NC(=O)C1CC1", "activity, negative = IMPase inhibition": "inactive: -2.19%"}, {"smiles": "CCOc1ccc(C2C(C(=O)c3ccco3)=C(O)C(=O)N2CCN(C)C)cc1", "note": "(stereo not drawn)", "activity, negative = IMPase inhibition": "inactive: 14.2% [at 38.3 µM]"}, {"smiles": "CCOc1ccc(/C(O)=C2\\C(=O)C(=O)N(CCOCCO)C2c2ccccc2OC)cc1", "note": "(stereo not drawn)", "Potency": "inconclusive: 10 µM [inhibitor, single point]"}, {"smiles": "O=C(NCc1ccc2c(c1)OCO2)c1ccc(C2SCC(=O)N2Cc2ccco2)cc1", "note": "(stereo not drawn)", "Potency": "inconclusive: 28.2 µM [inhibitor, single point]"}, {"smiles": "Cc1coc2cc3oc(=O)c4c(c3cc12)CCCC4", "Potency": "inconclusive: 28.2 µM [inhibitor, single point]"}, {"smiles": "Cc1cc(Cl)c(S(=O)(=O)Nc2ccon2)cc1OCC(=O)NC1CCCCC1", "activity, negative = IMPase inhibition": "inactive: -2.12% [at 38.3 µM]"}, {"smiles": "COC(=O)c1ccc(NC(=O)CO/N=C2\\CCCc3nonc32)cc1", "Potency": "inconclusive: 5.62 µM [inhibitor, full curve, poor fit]"}, {"smiles": "CCCn1c(C)nc2c(NC3CCN(Cc4ccccc4)CC3)nc(C)nc21", "activity, negative = IMPase inhibition": "inactive: -13.3%"}, {"smiles": "COc1ccc(/C=N/NC(=O)c2csc(-n3nc(C)cc3C(F)(F)F)n2)cc1", "activity, negative = IMPase inhibition": "inactive: -3.73%"}, {"smiles": "CCOc1ccc(NC(=O)CN(C)CC(=O)NC(C)c2ccccc2)cc1OCC", "note": "(stereo not drawn)", "Potency": "inconclusive: 5.01 µM [inhibitor, single point]"}, {"smiles": "O=C(COC(=O)Cc1ccccc1F)Nc1cc(S(=O)(=O)N2CCOCC2)ccc1N1CCCC1", "activity, negative = IMPase inhibition": "inactive: -5.52%"}, {"smiles": "CNc1nc(-c2ccccc2)nc(-c2ccccc2)c1C#N", "Potency": "inconclusive: 28.2 µM [inhibitor, single point]"}, {"smiles": "Cc1cc(F)c(F)c(C(=O)N2CCCCC2C)c1Cl", "note": "(stereo not drawn)", "activity, negative = IMPase inhibition": "inactive: 11.6%"}, {"smiles": "CC1=CC2=NC(=O)/C(=C\\c3cn(C)c4ccccc34)C(=N)N2O1", "Potency": "inconclusive: 11.2 µM [inhibitor, single point]"}, {"smiles": "Cc1cccc2sc(NC(=O)c3ccc(OCC4CCCO4)cc3)nc12", "note": "(stereo not drawn)", "Potency": "inconclusive: 28.2 µM [inhibitor, single point]"}, {"smiles": "COc1ccc(C(=O)NC(CC(=O)O)c2cc([N+](=O)[O-])ccc2Cl)c(SC)c1", "note": "(stereo not drawn)", "activity, negative = IMPase inhibition": "inactive: -0.342%"}, {"smiles": "O=C(C1=C(O)C(=O)N(CCCN2CCOCC2)C1c1ccccn1)c1cc2ccccc2o1", "note": "(stereo not drawn)", "Potency": "active: 11.2 µM"}, {"smiles": "O=C(NCc1ccco1)c1ccc2c(=O)n(-c3ccccc3)c(=S)[nH]c2c1", "Potency": "active: 12.6 µM"}, {"smiles": "O=C(Nc1ccc2nsnc2c1)C1CC1", "Potency": "inconclusive: 11.2 µM [inhibitor, single point]"}, {"smiles": "Cc1ccc2[nH]c3c(NCc4ccco4)ncnc3c2c1", "activity, negative = IMPase inhibition": "inactive: 13.1% [at 38.3 µM]"}, {"smiles": "COCCN1C(=O)C(=O)/C(=C(/O)c2ccc3c(c2)OCCO3)C1c1ccc(C(=O)OC)cc1", "note": "(stereo not drawn)", "Potency": "inconclusive: 8.91 µM [inhibitor, partial curve]"}, {"smiles": "Cc1ccc(NC(CNS(=O)(=O)c2ccc(Cl)cc2)c2ccccc2)cc1", "note": "(stereo not drawn)", "activity, negative = IMPase inhibition": "inactive: 10.2% [at 38.3 µM]"}, {"smiles": "S=c1nc(C2CC2)[nH]c2ccccc12", "Potency": "inconclusive: 12.6 µM [inhibitor, single point]"}, {"smiles": "Cc1cnc(C(=O)OCC(=O)NC(C)CCc2ccccc2)cn1", "note": "(stereo not drawn)", "Potency": "inconclusive: 5.01 µM [inhibitor, single point]"}, {"smiles": "Cc1cc2nc(CCN(Cc3cccnc3)C(=S)Nc3ccccc3)[nH]c2cc1C", "Potency": "inconclusive: 10 µM [inhibitor, single point]"}, {"smiles": "O=C(NC(=S)NCCc1ccccn1)c1ccccc1", "Potency": "inconclusive: 2.24 µM [inhibitor, full curve, poor fit]"}, {"smiles": "COc1cccc(/C(O)=C2/C(=O)C(=O)N(c3cc(C)on3)C2c2cccs2)c1", "note": "(stereo not drawn)", "Potency": "inconclusive: 8.91 µM [inhibitor, partial curve]"}, {"smiles": "COC(=O)c1sc2nc(N)c(C#N)cc2c1N", "Potency": "inconclusive: 22.4 µM [inhibitor, single point]"}, {"smiles": "C/C=C/c1ccc(OCCCn2cncn2)c(OC)c1", "activity, negative = IMPase inhibition": "inactive: 20.4% [at 38.3 µM]"}, {"smiles": "N#Cc1c(-c2cccs2)nc(SCc2ccc(Cl)cc2)[nH]c1=O", "Potency": "inconclusive: 28.2 µM [inhibitor, single point]"}, {"smiles": "CCOC(=O)c1nn(-c2ccc(OCC)cc2)c2nc(-c3ccco3)c(C#N)c(=O)n12", "Potency": "inconclusive: 11.2 µM [inhibitor, partial curve]"}, {"smiles": "COC(=O)c1ccc(C2/C(=C(/O)c3ccc(OC)cc3)C(=O)C(=O)N2c2cc(C)on2)cc1", "note": "(stereo not drawn)", "Potency": "active: 10 µM"}, {"smiles": "COc1ccc(C)cc1NC(=O)c1nnn(Cc2cc(C)ccc2C)c1N", "Potency": "inconclusive: 12.6 µM [inhibitor, single point]"}, {"smiles": "CCNC(=S)Nc1scc(-c2ccccc2)c1C(=O)OCC", "Potency": "inconclusive: 31.6 µM [inhibitor, partial curve]"}, {"smiles": "O=C(O)Cc1sc(-c2ccc(Cl)cc2)nc1-c1ccccc1", "Potency": "inconclusive: 12.6 µM [inhibitor, partial curve]"}]}]}
